Hit rate of the full screen: of about 50,000 compounds, about 800 (1.6%) showed an effect of 50% or more. The list shows a part of the results.
target: Bcl-2-like protein 10 (Homo sapiens) (UniProt Q9HD36); experiment: Phenotype converters, Bcl-B/TR3 peptide binding displacement, primary biochemical FP (AID 1240); settings: GST-Bcl-B / FITC-TR3 peptide fluorescence polarization; stronger effect = higher value; compound at 3.75 mg/L;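 note: 0% = Bcl-B with tracer peptide and DMSO and 100% = tracer peptide lacking Bcl-B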
Sequence of UniProt Q9HD36 (Q9HD36 whole entry, looked up): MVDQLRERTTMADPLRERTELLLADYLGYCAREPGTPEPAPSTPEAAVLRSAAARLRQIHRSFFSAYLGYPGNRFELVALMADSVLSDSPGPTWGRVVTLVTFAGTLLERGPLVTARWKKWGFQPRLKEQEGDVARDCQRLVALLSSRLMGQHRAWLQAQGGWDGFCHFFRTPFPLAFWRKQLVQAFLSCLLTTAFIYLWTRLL

Row | SMILES | displacement [%]
1 | Oc1ccc(Br)cc1CN1CCN(C2CCN(Cc3ccccc3)CC2)CC1 | 9
2 | CN(C)c1ccc(/C=C/C(=O)c2ccc(Cl)cc2)cc1 | -19.3
3 | CCCOc1ccc(N2C(=O)CC(NCCc3ccc(Cl)cc3)C2=O)cc1 (configuration not stated) | -11
4 | Cc1ccc(C(=O)CCNc2ccc(Br)cc2)o1 | -13
5 | CCCOc1ccccc1C1C(C(=O)OCCc2ccccc2)=C(C)NC2=C1C(=O)CCC2 (configuration not stated) | -3.2
6 | O=C(COc1ccc2ccccc2c1)Nc1ccc(Cl)cn1 | 10.1
7 | COc1ccc(C2NC(=O)NC3=C2CCc2ccccc23)cc1 (configuration not stated) | 16.8
8 | COc1ccccc1NC(=O)COc1ccc(Br)cc1 | 1.7
9 | COc1ccc(C(=O)Oc2ccc3c(C)cc(=O)oc3c2C(C)=O)cc1 | 7.8
10 | O=C(O)c1ccc(/C=C/C(=O)c2ccc3c(c2)OCCO3)cc1 | -1.5
11 | Cc1cc(C)c2nc(NC(=O)c3ccccc3[N+](=O)[O-])sc2c1 | 0.1
12 | COc1ccc(/C=C2/SC(=O)NC2=O)c(OC)c1 | 4.9
13 | Brc1ccc(OCCOc2cccc(/C=N/n3cnnc3)c2)cc1 | 7
14 | O=C1S/C(=C/C=C/c2ccccc2)C(=O)N1CNc1ccc(F)cc1 | 0.4
15 | Cc1cc(C)n(-c2cc(N(CCO)CCO)ncn2)n1 | 3.3
16 | CC(=O)Nc1ccc(NC(=S)NC(=O)/C=C/c2ccccc2)cc1 | 4.8
17 | COc1ccc(CC(=O)N=Nc2c(O)n(CN3CCN(C)CC3)c3ccc(Br)cc23)cc1 | -8.9
18 | Cc1oc(-c2ccccc2)cc1C(N)=O | -9.2
19 | O=C1CC(c2ccccc2)CC(O)=C1C=NCCc1ccccc1 (configuration not stated) | -17.4
20 | COc1cc(/C=C2\C(=O)NC(=O)N(c3ccc(F)cc3)C2=O)cc(I)c1O | -11.2
21 | O=C(Nc1ccc(-c2nc3ccccc3s2)c(O)c1)c1cc2ccccc2o1 | 24
22 | C1=NC(c2ccccc2)C(c2ccccc2)=NN1 (configuration not stated) | 2.6
23 | CCCOc1ccc(C2Nc3ccccc3NC3=C2C(=O)CC(c2ccc(OC)cc2)C3)cc1OC (configuration not stated) | -9.5

Row | SMILES | displacement [%]
24 | Cc1nc(-c2ccccc2)sc1C(=O)Nc1cccc2ccccc12 | 13.1
25 | CCOc1ccc(OCC)c(-c2c(C#N)c(N)nc3c2CCCCCC3)c1 | -9.1
26 | CCOP(=O)(CC(=O)O)c1ccccc1 (configuration not stated) | 18.9
27 | CN(C)Cc1c(O)ccc2occ(C(=O)c3cccs3)c12 | 5.8
28 | CN1C(=O)/C(=C/c2ccccc2F)SC1=S | 11.4
29 | Cc1cc(C)nc(NC(=O)COc2ccc(Cl)cc2Cl)c1 | 22.6
30 | COc1ccc(C(=O)N2CCN(c3cccc(C)c3C)CC2)cc1OC | 2.4
31 | O=[N+]([O-])c1cccc(S(=O)(=O)Nc2ccc(Br)cc2)c1 | 10
32 | Cc1ccccc1-c1cc(C(=O)Nc2ccccc2C(F)(F)F)c2ccccc2n1 | -7.6
33 | O=C(Nc1cccc(NC(=O)c2cc3ccccc3oc2=O)c1)c1ccccc1Cl | 1.9
34 | C/C(=N\NC(=O)Cc1ccc([N+](=O)[O-])cc1)c1ccc(Br)s1 | -5.8
35 | CC(=O)Nc1ccc(S(=O)(=O)Nc2ccc(Br)c(Cl)c2)cc1 | -8.7
36 | CCCCOC(=O)c1ccc(NC(=O)CSc2nnc(N)s2)cc1 | -17.7
37 | C=CCOc1ccccc1/C=C1/C(=O)ON=C1c1ccc(Cl)cc1 | 8.4
38 | O=C(O)c1ccc(N2C(=O)CC(SC(=Nc3ccccc3)Nc3ccccc3)C2=O)cc1 (configuration not stated) | 5.7
39 | COC(=O)CN(c1ccccc1C)S(C)(=O)=O | 8.7
40 | O=C(CSc1ccccn1)N/N=C/c1ccc(Br)cc1 | 1.5
41 | Cc1cccc(OCC(=O)Nc2ccc(Cl)cc2Cl)c1 | -4
42 | CC(C)(C)C(=O)Nc1oc(-c2ccccc2)c(-c2ccccc2)c1C#N | 2.6
43 | CCOc1ccc(NC(=O)CC2S/C(=N\N=C(/C)c3ccc(F)cc3)NC2=O)cc1 (configuration not stated) | 2.4
44 | O=C(c1ccco1)n1nnc2ccccc21 | 18.4
45 | NC(N)=NS(=O)(=O)c1ccc(N/C=C2/CCCCC2=O)cc1 | -3.5
46 | CCOc1ccccc1NC(=O)CN(Cc1ccccc1)S(=O)(=O)c1ccccc1 | 7.3

Row | SMILES | displacement [%]
47 | CCSc1nc(N)c(C#N)c(-c2ccco2)c1C#N | 5.9
48 | CCOc1ccc(OCCSc2nc3ccccc3c(=O)[nH]2)cc1 | 5.2
49 | CC(=O)NN1C(=O)/C(=C\c2ccc(O)c([N+](=O)[O-])c2)SC1=S | -64.7
50 | COc1cc(NS(=O)(=O)c2ccc(N/C=C\C(=O)c3ccc(Br)cc3)cc2)nc(OC)n1 | 18.4
51 | COc1ccccc1C(=O)N/C(=C\c1ccc(Br)cc1)C(=O)N1CCCCC1 | 7.8
52 | CCOc1ccc(C(C2=C(O)CC(C)(C)CC2=O)C2C(=O)CC(C)(C)CC2=O)cc1 (configuration not stated) | -4.7
53 | Cc1cccc(N2C(=O)CC(Sc3ccccc3C(=O)O)C2=O)c1C (configuration not stated) | -2.7
54 | COc1ccccc1Nc1nc(-c2cc3ccccc3oc2=O)cs1 | 2
55 | O=C1NC(=O)N(c2ccccc2F)C(=O)/C1=C/c1ccc(O)c(Cl)c1 | 10.2
56 | O=C(NCC1OCCc2ccccc21)c1ccccc1Cl (configuration not stated) | -11.3
57 | Fc1ccc(NC(=S)Nc2ccccc2Cl)cc1 | 18
58 | C(=NN1CCN(Cc2ccccc2)CC1)c1cccnc1 | -3.3
59 | Cc1ccc(C(=O)Nc2cc(Cl)cc(Cl)c2)o1 | -3.8
60 | CCOC(=O)c1ccc(N2C(=O)C3C4C=CC(C4=C(C)C)C3C2=O)cc1 (configuration not stated) | 3
61 | CC(CNC(=O)c1ccc(F)c2ccccc12)c1ccccc1 (configuration not stated) | -2.3
62 | COc1ccc(/C=C2\SC(N)=NC2=O)cc1 | 124
63 | CC(C)c1ccccc1OCCCNC(C)(C)C | -2.9
64 | COc1ccc(C2CC(=O)C3=C(C2)Nc2ccccc2NC3c2ccccc2Cl)cc1 (configuration not stated) | -6.1
65 | CCOC(=O)c1ccccc1NC(=O)CN(c1ccc(OC)cc1OC)S(C)(=O)=O | -1.7
66 | O=C(Nc1ccccc1[N+](=O)[O-])c1cc2ccccc2o1 | 12.4
67 | N/C(=N/c1nc2ccccc2o1)NC(=O)c1cccc(Br)c1 | -2.4
68 | Cc1cc(Cl)ccc1NC(=O)CCC(=O)N/N=C/c1cccs1 | 6.7
69 | Cc1ccnc(Nc2nc(-c3cccnc3)cs2)c1 | 4.6

Row | SMILES | displacement [%]
70 | N/C(=N\OC(=O)c1ccccc1[N+](=O)[O-])c1ccncc1 | 2.8
71 | Cc1cc(Cl)ccc1NC(=O)COc1ccc2ccccc2c1 | -3.9
72 | Cc1cc([N+](=O)[O-])ccc1N1C(=O)c2ccc(C(=O)Nc3ccccc3C(=O)O)cc2C1=O | -17
73 | O=C(NN1CCOCC1)c1ccccc1Cl | 7.7
74 | COc1ccc(CNS(=O)(=O)c2ccc(Cl)cc2)cc1 | 12.4
75 | O=c1c([N+](=O)[O-])c(N2CCN(c3ccccn3)CC2)c2ccccc2n1-c1ccccc1 | -10.9
76 | CCCC(=O)NC(c1ccc(Cl)cc1)c1c(OC(C)=O)ccc2ccccc12 (configuration not stated) | -10.4
77 | CC(C)(C)OC(=O)COc1ccc2c3c(c(=O)oc2c1)CCC3 | 7.4
78 | C=CCNCc1cccn1-c1ccccc1 | -8.5
79 | O=C1CCCC2=C1C(c1ccc(OCc3ccccc3)cc1)C1=C(CCCC1=O)O2 | 13.6
80 | O=[N+]([O-])c1ccc(-c2noc(-c3cccc(Br)c3)n2)cc1 | -10.1
81 | CCOC(=O)c1ccccc1NC(=O)/C(=C/c1cccc([N+](=O)[O-])c1)NC(=O)c1ccccc1 | 1.7
82 | COc1ccccc1C1=NN(C(=O)CCC(=O)O)C(c2ccc(Br)cc2)C1 (configuration not stated) | 11.1
83 | CCOC(=O)c1c(-c2ccc(-c3ccccc3)cc2)csc1NC(=O)C(C)C | -20.8
84 | CC1(C)Cc2ccccc2C(Nc2ccc(S(N)(=O)=O)cc2)=N1 | 0.8
85 | CC(=O)NC1=NC(=O)/C(=C\c2ccc(-c3ccc([N+](=O)[O-])cc3)o2)S1 | -26.1
86 | CC(=O)N=C1SC2CS(=O)(=O)CC2N1c1c(Cl)cccc1Cl (configuration not stated) | -5.6
87 | CC(=O)c1ccc(-c2ccc(C(C)=O)cc2)cc1 | 16.9
88 | O=C(NCCO)/C(=C\c1cccs1)NC(=O)c1ccccc1 | -11.4
89 | O=C(Nc1ccccc1Br)C1CN(S(=O)(=O)c2ccccc2)CCN1S(=O)(=O)c1ccccc1 (configuration not stated) | 4.9
90 | Cc1cc(Cl)ccc1NC(=O)c1cccc([N+](=O)[O-])c1 | -0.2
91 | CC(C)(C)c1ccc(C(=O)NCCOc2ccccc2Cl)cc1 | -9.6
92 | CCCOC(=O)C1=C(C)NC2(O)c3ccccc3C(=O)C12O (configuration not stated) | 7.8

Row | SMILES | displacement [%]
93 | Cc1c(C(=O)N2CCN(c3ccc([N+](=O)[O-])cc3)CC2)oc2ccccc12 | 16.1
94 | CCCN1CCN(C(=O)C2COc3ccccc3O2)CC1 (configuration not stated) | 6.3
95 | CC1(C)Cc2c(sc3ncn4nc(CO/N=C/c5ccccc5Cl)nc4c23)C(C)(C)N1 | -20.4
96 | CCc1cccc(C)c1NC(=O)COc1ccc(C)cc1C | 5
97 | CC(C)/C(=N\NS(=O)(=O)c1ccc(Br)cc1)c1cccs1 | -4.5
98 | CCOC(=O)c1ccc(N2NC(=O)/C(=C/c3cc(OC)c(OC)cc3Br)C2=O)cc1 | 1.9
99 | NNC(=O)c1ccccc1-n1cccc1 | 3.6
100 | C=CCN1C(=O)/C(=C\c2ccc(OC(=O)c3ccc([N+](=O)[O-])cc3)c(OC)c2)SC1=S | 13.6
101 | Cc1cc([N+](=O)[O-])ccc1NC(=O)c1ccccc1C(=O)O | 3.4
102 | O=C1C=CC(=O)c2c1c(-c1ccccc1)nn2-c1ccccc1 | -7.4
103 | Cc1ccc(OCC(=O)Nc2cccc(O)c2)cc1C | -6.7
104 | O=C1CS/C(=N/N=C/c2ccc(-c3ccc(Cl)cc3)o2)N1 | -6.7
105 | CCOC(=O)C1=C(C)NC(C)=C(C(=O)OCC)C1c1cccs1 | -5.1
106 | Cc1cc(=O)oc2cc(OCC(=O)C(C)(C)C)ccc12 | 8.3
107 | COc1ccc(-c2nnc(-c3ccc4c(c3)OCO4)o2)cc1OC | 12.7
108 | Clc1ccccc1CN1CCN(N=Cc2ccccc2Br)CC1 | -8
109 | Cc1ccc(C)c(NC(=O)c2c(-c3ccccc3Cl)noc2C)c1 | 9.9
110 | O=C1CCCC2=C1C(c1ccc(Cl)c(Cl)c1)Nc1ccccc1N2 (configuration not stated) | -2.1
111 | O=C(Nc1ccc(Cl)c([N+](=O)[O-])c1)C(c1ccccc1)c1ccccc1 | 7
112 | CC(C)COC(=O)C(C)Nc1n[nH]c(=O)[nH]c1=O (configuration not stated) | 7.1
